{"source": "the supplement of paper PMC4604168 (melanoma cell lines)", "note": "This is one part of the list. Repeats are few or missing, and single values can be far off.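 Also: cells treated in 1,536-well plates, then fixed and DAPI-stained, with nuclei counted from automated high-throughput microscope images.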", "data": [{"system": "UACC257", "test": "cell count relative to DMSO control; higher = more viable cells", "settings": "library dose: standard library concentration; 72 h", "units": {"cell count": "%"}, "values": [{"smiles": "COCC[n+]1c2c(n(Cc3cnccn3)c1C)C(=O)c1ccccc1C2=O", "note": "+ O=c1cc(-c2cccc3c2Sc2ccccc2S3)oc(N2CCOCC2)c1 [KU55933] (first compound 0.002 µM, partner dose 5 µM)", "cell count": 19.6}, {"smiles": "Nc1cccc2c1CN(C1CCC(=O)NC1=O)C2=O", "note": "(stereo unspecified) [lenalidomide] + O=C(CCCCCCC(=O)Nc1ccccc1)NO [vorinostat] (first compound 5 µM, partner dose 0.4 µM)", "cell count": 61.7}, {"smiles": "OCc1c[nH]c2ccccc12", "note": "[Indole-3-carbinol] + Cc1cc(N2CCOCC2)cc2[nH]c(-c3c(NC[C@@H](O)c4cccc(Cl)c4)cc[nH]c3=O)nc12 [BMS536924] (first compound 4 µM, partner dose 1 µM)", "cell count": 101}, {"smiles": "Clc1ccc(Nc2nnc(Cc3ccncc3)c3ccccc23)cc1", "note": "[vatalanib] + NC(=O)Nc1cc(-c2cccc(F)c2)sc1C(=O)N[C@H]1CCCNC1 [AZD7762] (first compound 10 µM, partner dose 0.1 µM)", "cell count": 53.4}]}, {"system": "UACC62", "test": "cell count relative to DMSO control; melanoma cells; higher = more viable cells", "settings": "library dose: standard library concentration; 72 h", "units": {"cell count": "%"}, "values": [{"smiles": "O=C(CCCCCCC(=O)Nc1ccccc1)NO", "note": "[vorinostat] + O=S(=O)(c1ccccc1)N(CC(F)(F)F)c1ccc(C(O)(C(F)(F)F)C(F)(F)F)cc1 [T0901317] (first compound 0.4 µM, partner dose 7 µM)", "cell count": 85.4}, {"smiles": "Nc1cccc2c1CN(C1CCC(=O)NC1=O)C2=O", "note": "(stereo unspecified) [lenalidomide] + Cn1cncc1[C@@](N)(c1ccc(Cl)cc1)c1ccc2c(c1)c(-c1cccc(Cl)c1)cc(=O)n2C [tipifarnib] (first compound 5 µM, partner dose 0.05 µM)", "cell count": 69.9}, {"smiles": "COCC[n+]1c2c(n(Cc3cnccn3)c1C)C(=O)c1ccccc1C2=O", "note": "+ Cn1cncc1[C@@](N)(c1ccc(Cl)cc1)c1ccc2c(c1)c(-c1cccc(Cl)c1)cc(=O)n2C [tipifarnib] (first compound 0.002 µM, partner dose 0.05 µM)", "cell count": 78.2}, {"smiles": "Cn1c(Nc2ccc(C(F)(F)F)cc2)nc2cc(Oc3ccnc(-c4ncc(C(F)(F)F)[nH]4)c3)ccc21", "note": "+ Oc1nc(-c2ccc(C(F)(F)F)cc2)nc2c1CSCC2 [XAV939] (first compound 0.4 µM, partner dose 10 µM)", "cell count": 42.4}, {"smiles": "Clc1ccc(Nc2nnc(Cc3ccncc3)c3ccccc23)cc1", "note": "[vatalanib] + C=CCn1c(=O)c2cnc(Nc3ccc(N4CCN(C)CC4)cc3)nc2n1-c1cccc(C(C)(C)O)n1 [MK1775] (first compound 10 µM, partner dose 0.1 µM)", "cell count": 55.9}, {"smiles": "OCc1c[nH]c2ccccc12", "note": "[Indole-3-carbinol] + C[C@@H]1CCN(C(=O)CC#N)C[C@@H]1N(C)c1ncnc2[nH]ccc12 [CP690550] (first compound 4 µM, partner dose 5 µM)", "cell count": 118}, {"smiles": "Cn1c(Nc2ccc(C(F)(F)F)cc2)nc2cc(Oc3ccnc(-c4ncc(C(F)(F)F)[nH]4)c3)ccc21", "note": "+ Nc1cccc2c1CN(C1CCC(=O)NC1=O)C2=O [lenalidomide] (first compound 0.4 µM, partner dose 5 µM)", "cell count": 49.9}, {"smiles": "COCC[n+]1c2c(n(Cc3cnccn3)c1C)C(=O)c1ccccc1C2=O", "note": "+ O=C(O)C(=O)Nc1sc2c(c1C(=O)O)CCNC2 [TCS401] (first compound 0.002 µM, partner dose 8.33333 µM)", "cell count": 68.2}, {"smiles": "C#Cc1cccc(Nc2ncnc3cc(OCCOC)c(OCCOC)cc23)c1", "note": "[erlotinib] + O=C(Nc1cccc(Cl)c1)Nc1ncc(CCNc2ncnc3ccsc23)s1 [SNS314] (first compound 4 µM, partner dose 0.004 µM)", "cell count": 69}, {"smiles": "Cn1c(Nc2ccc(C(F)(F)F)cc2)nc2cc(Oc3ccnc(-c4ncc(C(F)(F)F)[nH]4)c3)ccc21", "note": "+ COc1ccc2c(c1)CCC1C2CCC2(C)C(NCCCCCCN3C(=O)C=CC3=O)CCC12 [U73122] (first compound 0.4 µM, partner dose 2 µM)", "cell count": 34.6}, {"smiles": "Nc1cccc2c1CN(C1CCC(=O)NC1=O)C2=O", "note": "(stereo unspecified) [lenalidomide] + O=S(=O)(c1ccccc1)N(CC(F)(F)F)c1ccc(C(O)(C(F)(F)F)C(F)(F)F)cc1 [T0901317] (first compound 5 µM, partner dose 7 µM)", "cell count": 91.5}, {"smiles": "OCc1c[nH]c2ccccc12", "note": "[Indole-3-carbinol] + O=C(CCCCCCC(=O)Nc1ccccc1)NO [vorinostat] (first compound 4 µM, partner dose 0.4 µM)", "cell count": 83.3}]}]}
